Patent US12448423 (Xencor, dated 2025)

Biological target: T1, HIS-tagged human NKG2D (human, UniProt P26718 73-216, limits assumed)
T1 construct: Captured on HIS1K biosensors; not shown: HIS tag
T1 sequence (looked up): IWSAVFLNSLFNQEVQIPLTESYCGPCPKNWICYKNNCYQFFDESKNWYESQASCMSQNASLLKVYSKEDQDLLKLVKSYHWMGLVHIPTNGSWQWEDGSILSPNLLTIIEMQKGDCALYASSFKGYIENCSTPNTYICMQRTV
Test: Octet (BLI): HIS-tagged human NKG2D captured on HIS1K biosensors, dipped into multiple concentrations of the fusion; global fit, 1:1 Langmuir model

B1: XENP27195 (Fc fusion)
chain 1: ITCPPPMSVEHADIWVKSYSLYSRERYICNSGFKRKAGTSSLTECVLNKATNVAHWTTPSLKCIRGGGGSGGGGSGGGGSGGGGSGGGGS[omitted - about 120 residues]EPKSSDKTHTCPPCPAPPVAGPSVFLFPPKPKDTLMISRTPEVTCVVVDVKHEDPEVKFNWYVDGVEVHNAKTKPREEEYNSTYRVVSVLTVLHQDWLNGKEYKCKVSNKALPAPIEKTISKAKGQPREPQVYTLPPSREEMTKNQVSLTCDVSGFYPSDIAVEWESDGQPENNYKTTPPVLDSDGSFFLYSKLTVDKSRWEQGDVFSCSVMHEALHNHYTQKSLSLSPGK
chain 2: QVQLVESGGGLVKPGGSLRLSCAASGFTFSSYGMHWVRQAPGKGLEWVAFIRYDGSNKYYADSVKGRFTISRDNSKNTKYLQMNSLRAEDTAVYYCAKDRGLGDGTYFDYWGQGTTVTVSSASTKGPSVFPLAPSSKSTSGGTAALGCLVKDYFPEPVTVSWNSGALTSGVHTFPAVLQSSGLYSLSSVVTVPSSSLGTQTYICNVNHKPSNTKVDKKVEPKSCDKTHTCPPCPAPPVAGPSVFLFPPKPKDTLMISRTPEVTCVVVDVKHEDPEVKFNWYVDGVEVHNAKTKPREEQYNSTYRVVSVLTVLHQDWLNGKEYKCKVSNKALPAPIEKTISKAKGQPREPQVYTLPPSREQMTKNQVKLTCLVKGFYPSDIAVEWESNGQPENNYKTTPPVLDSDGSFFLYSKLTVDKSRWQQGNVFSCSVMHEALHNHYTQKSLSLSPGK
chain 3: QSALTQPASVSGSPGQSITISCSGSSSNIGNNAVNWYQQLPGKAPKLLIYYDDLLPSGVSDRFSGSKSGTSAFLAISGLQSEDEADYYCAAWDDSLNGPVFGGGTKLTVLGQPKAAPSVTLFPPSSEELQANKATLVCLISDFYPGAVTVAWKADSSPVKAGVETTTPSKQSNNKYAASSYLSLTPEQWKSHRSYSCQVTHEGSTVEKTVAPTECS
notes: scIL-15/Rα x Fab format; also called NKG2D(KYK-2.0)-targeted IL-15(N4D/N65D)/Rα-Fc
**Q.** With B1 as the binder, how does the Kd read?
**A.** 3.65 nM

**Q.** What about the koff of the same binder?
**A.** 0.00272 s⁻¹

**Q.** And the kon?
**A.** 745000 M⁻¹ s⁻¹
